In article PMC4336329 (PLoS ONE, 2015):
Out of some 310,000 compounds screened, about 14,000 (4.5%) showed an effect of 50% or more. Effects have a minus sign here. The list shows a part of the results.

What follows are compounds tested against human ether-à-go-go-related gene (hERG) potassium channel (human, UniProt Q12809) (assay: primary screen, population patch clamp on CHO cells stably expressing hERG).
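Also: peak tail current of the secondary pulse compared with the same well before compound.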

Sequence of human ether-à-go-go-related gene (hERG) potassium channel (Q12809 whole entry, looked up): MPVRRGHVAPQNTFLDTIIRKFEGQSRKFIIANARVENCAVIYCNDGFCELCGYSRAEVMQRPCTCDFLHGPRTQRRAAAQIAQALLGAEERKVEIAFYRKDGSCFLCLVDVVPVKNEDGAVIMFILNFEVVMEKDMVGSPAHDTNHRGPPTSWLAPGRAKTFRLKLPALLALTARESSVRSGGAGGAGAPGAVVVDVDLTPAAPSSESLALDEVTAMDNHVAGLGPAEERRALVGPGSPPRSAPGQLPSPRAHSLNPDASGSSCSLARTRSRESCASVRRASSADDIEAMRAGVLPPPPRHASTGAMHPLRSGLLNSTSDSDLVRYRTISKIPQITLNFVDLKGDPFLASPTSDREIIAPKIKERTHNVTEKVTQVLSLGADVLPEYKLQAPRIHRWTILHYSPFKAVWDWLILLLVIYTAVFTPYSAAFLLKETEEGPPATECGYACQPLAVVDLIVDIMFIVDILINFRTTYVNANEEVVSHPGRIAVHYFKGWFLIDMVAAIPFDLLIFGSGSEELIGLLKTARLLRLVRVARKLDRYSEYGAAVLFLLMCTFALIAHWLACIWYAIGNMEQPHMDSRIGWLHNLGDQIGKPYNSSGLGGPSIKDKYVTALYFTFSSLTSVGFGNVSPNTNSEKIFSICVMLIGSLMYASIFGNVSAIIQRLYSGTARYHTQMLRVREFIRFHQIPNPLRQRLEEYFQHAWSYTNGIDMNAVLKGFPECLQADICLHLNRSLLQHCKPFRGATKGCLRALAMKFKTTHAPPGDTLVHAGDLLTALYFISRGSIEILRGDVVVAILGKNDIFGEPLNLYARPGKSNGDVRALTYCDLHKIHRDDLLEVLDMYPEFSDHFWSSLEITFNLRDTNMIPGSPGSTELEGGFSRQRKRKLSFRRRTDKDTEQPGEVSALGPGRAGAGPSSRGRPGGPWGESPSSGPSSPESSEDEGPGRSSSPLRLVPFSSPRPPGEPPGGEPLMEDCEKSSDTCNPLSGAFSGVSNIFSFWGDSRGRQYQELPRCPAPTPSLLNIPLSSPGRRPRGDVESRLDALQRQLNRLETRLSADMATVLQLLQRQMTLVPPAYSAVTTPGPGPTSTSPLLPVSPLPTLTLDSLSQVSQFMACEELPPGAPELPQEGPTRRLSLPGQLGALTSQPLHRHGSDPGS

Structure (SMILES) | hERG current change (%, negative = inhibition) at 10uM
COc1ccc(C(=O)N2CCN(CCc3ccccn3)CC2)cc1.Cl | -77.3%
COc1ccc(CCNC(=O)c2nc3ncccn3n2)cc1OC | 18.6%
CC(=O)c1sc(-c2ccccc2)nc1C | -0.327%
COc1cc(NC(=O)CSc2ccc(-c3ccccn3)nn2)cc(OC)c1 | 9.65%
Cc1ccn2cc(-c3cccc(NC(=O)CCC(=O)O)c3)nc2c1 | 20.9%
Cc1onc(-c2ccccc2Cl)c1C(=O)N1CCCC1 | 8.33%
COc1ccc(NC(=O)c2cc(C)no2)cc1 | 21.3%
COc1cc(COc2ccc3c(C)c(CC(=O)O)c(=O)oc3c2C)cc(OC)c1OC | 17.6%
O=C(NCCCO)c1nnc(Cc2c(F)cccc2Cl)o1 | 7.19%
CC(=O)c1ccc(-n2ccc(=O)cc2)cc1 | 8.1%
CC(C)OC(=O)CSc1nnc(-c2ccco2)n1N | -5.09%
Cc1ccc2nsnc2c1NC(=O)c1sc2ccccc2c1Cl | 18.1%
Cc1cc(OCC(=O)NC(C)c2ccccc2)ccc1[N+](=O)[O-] (stereo not drawn) | -13.2%
CC(C)c1nc(CNC(=O)C2CCC(=O)N(Cc3ccc(Cl)cc3)C2)no1 (stereo not drawn) | 3.8%
CCOC(=O)CC(=O)CSc1nc2c(c(-c3cccs3)c1C#N)CCC2 | -16.9%
CCOc1cc(C2NC(=O)NC(O)(C(F)(F)F)C2C(=O)c2ccc(OC)cc2)ccc1O (stereo not drawn) | 4.02%
COc1ccc(NS(=O)(=O)c2ccc(NC(=S)NC(=O)/C=C/c3ccc(C)cc3)cc2)nn1 | 15.2%
CCOC(=O)CN1C(=O)CC(c2ccccc2)C1=O (stereo not drawn) | 12.6%
Cc1cccc(-c2nc3ccccc3c(=O)n2NC(=O)c2cccs2)c1 | 1.65%
COc1ccc(Cl)cc1S(=O)(=O)N1CCN(C(=O)COc2ccccc2)CC1 | -19.3%
O=C(/C=C/c1ccc([N+](=O)[O-])cc1)Nc1cccnc1 | -62.7%
N#C/C(=C\c1ccccc1OCC(=O)O)c1nc2ccccc2[nH]1 | 8.46%
O=C(c1ccc2c(=O)n(Cc3ccco3)c(=S)[nH]c2c1)N1CCN(c2ccccc2)CC1 | 12.2%

Structure (SMILES) | hERG current change (%, negative = inhibition) at 10uM
CCCCCC/C(=N\NS(C)(=O)=O)c1ccccc1 | 2.07%
CCOc1cccc(OCCCCn2cnc3ccccc3c2=O)c1 | 5.62%
Cc1cc(SCC(=O)Nc2ncc(Cl)cc2Cl)nc2ccccc12 | 10.5%
COc1ccc(CN(C(=O)c2oc3ccccc3c2C)C2CCS(=O)(=O)C2)cc1OC (stereo not drawn) | -24.6%
C=CCn1c(Cc2ccc(OC)cc2)nnc1SCC(=O)c1cccc([N+](=O)[O-])c1 | -14.1%
COCCCn1c(C)nnc1SCC(=O)Nc1ccc(C(C)=O)cc1 | 13.1%
C=CCn1c(-c2ccc(N)cc2)nc2ccccc21 | 1.02%
O=C(NCCN1Cc2ccccc2C1=O)c1cccs1 | 9.5%
O=C(NC(=S)Nc1c(F)cc(F)cc1Br)c1ccc2c(c1)OCCO2 | 22.5%
O=C(NN=C1C2CC3CC(C2)CC1C3)c1ccncc1 | 1.13%
CCCCn1c(N)c(N(CC)C(=O)c2cc(S(=O)(=O)N3CCCCCC3)ccc2OC)c(=O)[nH]c1=O | 4.53%
CC1CCN(c2nc(N(C)c3ccccc3)nc(N)c2[N+](=O)[O-])CC1 | 7.42%
CCCCc1ccc(NC(=O)CC(C)=O)cc1 | -20.4%
O=c1c2ccccc2nc(Cc2cccc([N+](=O)[O-])c2)n1-c1ccc(O)cc1 | -35.5%
Cc1ccccc1NNC(=O)C(=O)NNc1ccccc1C | 11.3%
COc1ccc(S(=O)(=O)N(C)CC(=O)Nc2ccc(F)cc2)cc1 | 3.38%
COC(=O)C1=C(c2ccc(OC)c(OC)c2)C[C@@H]2CC[C@H]1N2C(=O)N1CCCC1 | 15%
Cc1c2cn[nH]c(=O)c2c(C)n1-c1ccccc1 | 4.51%
COCc1c(C(=O)N/N=C(/C)c2ccc(OCc3ccccc3)cc2)nnn1-c1nonc1N | 9.35%
COc1cc(C(c2c(C)[nH][nH]c2=O)c2c(C)[nH][nH]c2=O)cc(Cl)c1O | 17.3%
CNC(=O)Nc1ccccc1C(=O)NCc1ccccc1 | -2.12%
O=C(Nc1cnc2sc3c(n2c1=O)CCCC3)c1ccc(F)cc1 | -10.6%
